In US12084426B2, “Indazole carboxamides as kinase inhibitors” (BRISTOL-MYERS SQUIBB COMPANY, priority 2018, dated 2024) one finds IC50 data, which are given here for 23 molecules.

The target of one assay is His-GST-TVMV-hRIPK1(1-324) (Homo sapiens (Human), UniProt Q13546). As to the kind of experiment: biochemical.
Settings: not given
For `CNC(=O)c1n[nH]c2cc(N3CCCC(C(=O)NCC(O)COc4ccccc4)C3)ccc12` (single isomer, unassigned) [Example 6, 6-{3-[(2-hydroxy-3-phenoxypropyl)carbamoyl]piperidin-1-yl}-N-methyl-1H-indazole-3-carboxamide], half-maximal inhibition (IC50) was put at 52 nM.
As to `CNC(=O)c1n[nH]c2cc(N3CCCC(C(=O)NC4CCCC(c5ccccc5)C4)C3)ccc12` (single isomer, unassigned) [Example 15, N-methyl-6-{3-[(3-phenylcyclohexyl)carbamoyl]piperidin-1-yl}-1H-indazole-3-carboxamide], half-maximal inhibition (IC50) required 440 nM.
`CNC(=O)c1n[nH]c2cc(N3CCCC(C(=O)NCC(O)COc4ccccc4)C3)ccc12` (single isomer, unassigned) [Example 7, 6-{3-[(2-hydroxy-3-phenoxypropyl)carbamoyl]piperidin-1-yl}-N-methyl-1H-indazole-3-carboxamide]: the IC50 (as a rule, the point on the concentration scale where inhibition reaches its midpoint) is 170 nM.
The molecule `CNC(=O)c1n[nH]c2cc(N3CCCC(C(=O)NC4CCCC(c5ccccc5)C4)C3)ccc12` (single isomer, unassigned) [Example 16, N-methyl-6-{3-[(3-phenylcyclohexyl)carbamoyl]piperidin-1-yl}-1H-indazole-3-carboxamide] showed an IC50 of 1600 nM.
With `CNC(=O)c1n[nH]c2cc(N3CCCC(C(=O)NCCCOC4CCCCC4)C3)ccc12` (racemic) [Example 9, 6-(3-{[3-(cyclohexyloxy)propyl]carbamoyl}piperidin-1-yl)-N-methyl-1H-indazole-3-carboxamide], the IC50 came to 1000 nM.

Still in this assay, the particulars now being: read-out: RIPK1 HTRF (IC50); HTRF binding, probe displacement, 1 h at rt.
On to `CNC(=O)c1n[nH]c2cc(N3CCCC(C(=O)NCCC(O)c4ccc(F)c(F)c4)C3)ccc12` (centres unmarked) [Example 14, 6-(3-{[3-(3,4-difluorophenyl)-3-hydroxypropyl]carbamoyl}piperidin-1-yl)-N-methyl-1H-indazole-3-carboxamide], for which the IC50 was found to be 310 nM.
`CNC(=O)c1n[nH]c2cc(N3CCCC(C(=O)Nc4cnn(Cc5ccccc5)c4)C3)ccc12` (centres unmarked) [Example 11, 6-{3-[(1-benzyl-1H-pyrazol-4-yl)carbamoyl]piperidin-1-yl}-N-methyl-1H-indazole-3-carboxamide]: the IC50 stood at 540 nM.
As to `CNC(=O)c1n[nH]c2cc(N3CCN(C)C(C(=O)NCCC(C)c4ccccc4)C3)ccc12` (centres unmarked) [Example 20, N-methyl-6-{4-methyl-3-[(3-phenylbutyl)carbamoyl]piperazin-1-yl}-1H-indazole-3-carboxamide], the IC50 amounted to 2200 nM.
The same measure, in the same setting: under `CNC(=O)c1n[nH]c2cc(N3CCOC(C(=O)NCCC(C)c4ccccc4)C3)ccc12` (centres unmarked) [Example 22, N-methyl-6-{2-[(3-phenylbutyl)carbamoyl]morpholin-4-yl}-1H-indazole-3-carboxamide] stands 100 nM.
Regarding `CNC(=O)c1n[nH]c2cc(N3CCNC(C(=O)NCCC(C)c4ccccc4)C3)ccc12` (centres unmarked) [Example 4, N-methyl-6-{3-[(3-phenylbutyl)carbamoyl]piperazin-1-yl}-1H-indazole-3-carboxamide], the IC50 was determined as 1100 nM.
As to `CNC(=O)c1n[nH]c2cc(N3CCOC(C(=O)NCCC(C)c4ccc(F)cc4)C3)ccc12` (centres unmarked) [Example 24, 6-(2-{[3-(4-fluorophenyl)butyl]carbamoyl}morpholin-4-yl)-N-methyl-1H-indazole-3-carboxamide], the IC50 is 51 nM.
In the case of `CNC(=O)c1n[nH]c2cc(N3CCOC(C(=O)NC4CCCC(c5ccccc5)C4)C3)ccc12` (centres unmarked) [Example 26, N-methyl-6-{2-[(3-phenylcyclohexyl)carbamoyl]morpholin-4-yl}-1H-indazole-3-carboxamide], the IC50 turned out to be 290 nM.
Same read-out and setting: under `CNC(=O)c1n[nH]c2cc(N3CCOC(C(=O)NCCC(O)c4ccc(Cl)cc4)C3)ccc12` (centres unmarked) [Example 25, 6-(2-{[3-(4-chlorophenyl)-3-hydroxypropyl]carbamoyl}morpholin-4-yl)-N-methyl-1H-indazole-3-carboxamide] stands 1600 nM; under `CNC(=O)c1n[nH]c2cc(N3CCOC(C(=O)NCC4CC4c4cccc(F)c4)C3)ccc12` (centres unmarked) [Example 23], 280 nM; under `CNC(=O)c1n[nH]c2cc(N3CCCC(C(=O)NCc4ccccc4OCC4CC4)C3)ccc12` (racemic) [Example 12, 6-[3-({[2-(cyclopropylmethoxy)phenyl]methyl}carbamoyl)piperidin-1-yl]-N-methyl-1H-indazole-3-carboxamide], 110 nM.
Take `CNC(=O)c1n[nH]c2cc(N3CCN(C)C(C(=O)NCc4ccccc4OC)C3)ccc12` (centres unmarked) [Example 2, 6-(3-{[(2-methoxyphenyl)methyl]carbamoyl}-4-methylpiperazin-1-yl)-N-methyl-1H-indazole-3-carboxamide]: the IC50 was greater than 15000 nM.
On the same count and under the same terms, in the case of `CNC(=O)c1n[nH]c2cc(N3CCN(C)C(C(=O)NCCC(O)c4ccccc4)C3)ccc12` (centres unmarked) [Example 18, 6 6-{3-[(3-hydroxy-3-phenylpropyl)carbamoyl]-4-methylpiperazin-1-yl}-N-methyl-1H-indazole-3-carboxamide] it was greater than 15000 nM.
For the molecule `CNC(=O)c1n[nH]c2cc(C3CCCN(C(=O)NCCC(C)c4ccccc4)C3)ccc12` (centres unmarked) [Example 5, N-methyl-6-{1-[(3-phenylbutyl)carbamoyl]piperidin-3-yl}-1H-indazole-3-carboxamide], the IC50 is 25 nM.
With `CNC(=O)c1n[nH]c2cc(N3CCCC(C(=O)NCc4ccccc4Oc4ccccc4)C3)ccc12` (racemic) [Example 8, N-methyl-6-(3-{ [(2-phenoxyphenyl)methyl]carbamoyl}piperidin-1-yl)-1H-indazole-3-carboxamide], the IC50 came out at 515 nM.
Still for that read-out and setting: under `CNC(=O)c1n[nH]c2cc(N3CCCC(C(=O)NCCC(O)c4ccccc4)C3)ccc12` (centres unmarked) [Example 10, 6-{3-[(3-hydroxy-3-phenylpropyl)carbamoyl]piperidin-1-yl}-N-methyl-1H-indazole-3-carboxamide] stands 410 nM.
In the case of `CNC(=O)c1n[nH]c2cc(N3CCCC(C(=O)NCCCOc4ccc(F)cc4)C3)ccc12` (centres unmarked) [Example 13, 6-(3-{[3-(4-fluorophenoxy)propyl]carbamoyl}piperidin-1-yl)-N-methyl-1H-indazole-3-carboxamide], the IC50 was 1300 nM.
On the same count and under the same terms, under `CNC(=O)c1n[nH]c2cc(N3CCN(C)C(C(=O)NCCC(C)c4ccc(F)cc4)C3)ccc12` (centres unmarked) [Example 19, 6-(3-{[3-(4-fluorophenyl)butyl]carbamoyl}-4-methylpiperazin-1-yl)-N-methyl-1H-indazole-3-carboxamide] stands 790 nM.
As for `CNC(=O)c1n[nH]c2cc(N3CCOC(C(=O)NCCC(O)c4ccc(F)c(F)c4)C3)ccc12` (centres unmarked) [Example 3, 6-(2-{[3-(3,4-difluorophenyl)-3-hydroxypropyl]carbamoyl}morpholin-4-yl)-N-methyl-1H-indazole-3-carboxamide], the IC50 stood at 1100 nM.
